# Measurements from the supplement of paper PMC3334620.
# The full ranking holds about 33,000 sequences; the median of “E-score (-0.5 to 0.5)” is about -0.016, and the highest 2% start at about 0.32. This is one part of the list.
# Target: T1, Stp1 (UniProt B3LFK1)
# T1 sequence: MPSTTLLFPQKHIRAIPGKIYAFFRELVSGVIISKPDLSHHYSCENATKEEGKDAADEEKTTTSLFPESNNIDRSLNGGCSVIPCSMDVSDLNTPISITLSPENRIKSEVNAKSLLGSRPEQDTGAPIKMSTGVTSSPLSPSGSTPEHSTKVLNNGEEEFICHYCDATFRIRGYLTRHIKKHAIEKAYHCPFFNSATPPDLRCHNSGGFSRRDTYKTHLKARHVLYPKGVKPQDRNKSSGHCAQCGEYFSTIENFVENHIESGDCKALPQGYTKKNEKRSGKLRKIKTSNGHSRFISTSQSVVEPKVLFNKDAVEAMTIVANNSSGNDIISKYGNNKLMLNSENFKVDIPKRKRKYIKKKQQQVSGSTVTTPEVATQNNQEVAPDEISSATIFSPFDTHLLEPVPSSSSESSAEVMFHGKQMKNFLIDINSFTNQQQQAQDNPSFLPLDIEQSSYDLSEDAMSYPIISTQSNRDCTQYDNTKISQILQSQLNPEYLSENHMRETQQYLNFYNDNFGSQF
# Experiment: PBM E-score (8-mer binding enrichment) (E-score (-0.5 to 0.5)); higher = stronger / more preferred TF binding; most listed sequences are background and not binding sites
# Conditions: protein concentration: 200 nM; construct: GST-full length
# Procedure, shortened: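 Universal all-10-mer Agilent arrays, fresh or stripped once, were converted to double-stranded form by primer extension. GST-tagged yeast transcription factors from PURExpress in vitro transcription/translation, full-length or DNA-binding domain only, were applied at about 100-200 nM and detected with fluorescent anti-GST. After masliner normalisation, the Universal PBM Analysis Suite scored each ungapped eight-base word together with its reverse complement by E-score.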
row,Sequence,PBM E-score
1,AGGTTCGA,-0.069
2,AATGATTG,0.0683
3,ATCTGGGA,-0.14
4,CAAGGGCG,0.0905
5,CTCCTTCC,-0.223
6,ACGCAGAT,-0.0383
7,CGCGCATC,0.0783
8,ATGAATAA,-0.00029
9,AGGGAACT,-0.197
10,GCTATGGA,-0.225
11,GACGGACC,0.0496
12,ACAGTATC,0.197
13,AGCTAACT,0.0936
14,ATATATGC,0.0932
15,GAATCAGA,0.101
16,AGATAGAC,-0.046
17,CTGCTTGA,-0.179
18,ACGCTTGG,-0.23
19,CAAGATTC,0.0354
20,ACCAGTCC,-0.289
21,ACTTTTTG,0.00254
22,GTACTACA,0.16
23,TAGAATGA,0.0457
24,GCCGCGAC,0.282
25,AATCATCG,-0.0964

row,Sequence,PBM E-score
1,GGGCGACA,0.0209
2,GAGGAATA,0.0135
3,ATCCCGAG,0.00351
4,ATTAGGCC,-0.0584
5,CATGTTAA,0.181
6,GCCCCGGC,-0.156
7,AAGAGCCG,0.336
8,GGGCACGA,0.133
9,CGGTCCAC,-0.119
10,GACTTATC,-0.216
11,CACTTGAC,-0.0949
12,AGCTACTA,-0.0111
13,CGGTTGAA,0.106
14,AGAGACGC,-0.034
15,CTAGAGCA,-0.148
16,ATCTACTC,0.0719
17,ACGCCGTG,0.485
18,ACTGTAAT,0.0123
19,GTACAGGA,-0.0206
20,ATTCTCAC,0.0144
21,ATCGGAGG,-0.198
22,ACATGCGG,0.311
23,AGTGGAGG,-0.205
24,GCTATGCA,-0.156
25,CGACGATC,-0.00079

row,Sequence,PBM E-score
1,CACAAGCC,0.0882
2,CCCATTTA,0.149
3,CGCGACAA,0.247
4,AGCCACAT,0.163
5,AACAGTGT,-0.102
6,CCACATAA,0.15
7,CGGCGCAA,0.422
8,CCTCTCGC,-0.228
9,ATCGCAAT,0.0775
10,TAATATTA,0.263
11,AGCATAGA,-0.00514
12,ATGCCCGA,-0.323
13,CTCACTTC,-0.296
14,GATTTGGC,0.0165
15,ACGTCACT,0.00118
16,ATGGGGTC,-0.216
17,TGAGGTAA,-0.0382
18,CGTAAACC,-0.0814
19,CTCGGATA,0.102
20,GCTTAAGC,-0.0752
21,TAGACCTA,-0.157
22,CGTCAAGA,-0.102
23,GCGCGAGA,0.107
24,CTTCTTTC,-0.16
25,GAAGTCTC,-0.302

row,Sequence,PBM E-score
1,CGGAAACA,-0.0866
2,ACGAACGT,0.03
3,CATAGACG,0.023
4,GATACACC,0.0838
5,AGGCCGGA,-0.155
6,ATGATCAT,0.17
7,CGAGGGCC,-0.151
8,AAAGGAGG,-0.258
9,CAATAATC,-0.0393
10,ATGGTAAT,0.0391
11,AGATCGTA,-0.171
12,AACCATGG,0.0731
13,AGCCACGG,0.153
14,CGTACCAG,-0.01
15,AGCCGTCA,0.119
16,TTGGACAA,-0.137
17,ATGTACAT,0.128
18,AAACCTGA,0.0317
19,ACTGAAGG,-0.195
20,GCGCTTGA,0.115
21,CTAGGTGA,-0.201
22,ACGCACGC,0.265
23,CGTAGCCA,0.0118
24,CAGTGCAG,-0.199
25,GGCAGAAC,0.0544

row,Sequence,PBM E-score
1,CTTGGTAA,0.056
2,CGGTTGGC,0.163
3,GAATCGTC,-0.0739
4,AATATAAA,0.221
5,GACATCCC,-0.143
6,AGTCTAGC,-0.293
7,ATATTACA,0.151
8,CCAGAGGG,-0.19
9,ATCTTTGG,-0.101
10,GATCCTAA,-0.164
11,CTCAACAA,0.162
12,ATTCGAGG,-0.176
13,GATCGGGC,-0.0961
14,CCACGAGC,-0.188
15,ACTTTTAA,0.0475
16,AGTTTCCC,-0.0616
17,CGCGAAGA,-0.0216
18,AAAGCCAA,0.0958
19,CCCTGAAA,0.00197
20,CCTGTAAA,-0.2
21,AGATATGG,0.0188
22,ACTCTCGC,-0.206
23,AGGAACGA,-0.123
24,ACTCAGCT,-0.0912
25,ATCTGCAA,-0.145

row,Sequence,PBM E-score
1,CCGACTGC,-0.159
2,ACTGCGGA,0.0949
3,ACCGCGCT,0.077
4,AGACCCAC,-0.114
5,ATTTTAGA,-0.0553
6,GGTCCAAA,-0.139
7,GCAGACAA,0.0153
8,AGGAGGTA,-0.269
9,AGCACGCC,0.201
10,CAGACTTC,-0.243
11,CCGCTTCA,0.134
12,AGAGAGAT,-0.00376
13,GGCCCGAA,-0.0919
14,ATGGGTTA,-0.00335
15,ATCCTGAC,-0.0195
16,AACAGCCT,-0.118
17,AGCACTGA,-0.127
18,ACGTTATC,-0.18
19,AGACCGAC,-0.14
20,GCCACCGA,-0.0468
21,ATATTTTA,0.106
22,TCTTGCAA,0.214
23,CGAGTATA,-0.0563
24,ACATATGC,-0.203
25,CGCTAACA,0.0815

row,Sequence,PBM E-score
1,CGAAATCC,0.0318
2,TGGAGTAA,0.135
3,CCCAGGGA,-0.266
4,AGTTTATA,0.153
5,CCCATAAC,-0.0623
6,ACCCCATC,-0.246
7,CATGGACC,-0.0645
8,ACAGTTGA,-0.122
9,ACTGCGCA,0.0214
10,AATTACTG,-0.00125
11,AGGTAAAG,0.136
12,ATCAGTAG,-0.0596
13,ATCCGACC,-0.00026
14,AAGTATAT,0.181
15,ACTTGCGA,0.107
16,ACAAGCCC,-0.0425
17,CCGGACCA,-0.0686
18,CCATGTCG,-0.152
19,AGCTTCCG,-0.00824
20,CGAATTAA,0.177
21,AAACGTGC,-0.0181
22,ATGGCGTC,0.223
23,GTATACAC,0.12
24,CCTGAACC,-0.098
25,AGCCGGAG,0.0308

row,Sequence,PBM E-score
1,AGGATCGA,-0.124
2,ACAGGCAT,0.0877
3,CTTAGTGC,0.161
4,GGGGACAC,-0.338
5,CCTTGGAC,-0.103
6,AGCAAGCG,-0.131
7,GAAGGCAC,0.368
8,GGCAGCCC,-0.0258
9,CCATGTCA,-0.125
10,ATTCCGTC,-0.191
11,GTGTCCGA,-0.0597
12,AAGACCTT,-0.0467
13,TGTCCAAA,0.115
14,GTTGCGCA,-0.0876
15,CTTGGAAA,0.0699
16,GTTAAAAA,0.0582
17,ATCAATTC,0.0276
18,CCCGCTTC,-0.201
19,CCAGCGAG,-0.297
20,ACCAGCCT,-0.245
21,GCTTGTCC,-0.0445
22,AAGCCTAC,-0.0136
23,AGGAGGAT,-0.107
24,GGGGGTGA,-0.301
25,AACCCACT,0.00826

row,Sequence,PBM E-score
1,CACCGGGC,-0.117
2,AGGTATAG,-0.244
3,ATCCGAGA,-0.0156
4,CACGACCA,-0.133
5,CTACCTGC,0.0359
6,AGGCCGTC,-0.0198
7,GAGTACCC,-0.148
8,CGCCCAGC,0.0443
9,AGCTGGGA,-0.236
10,CACAGCCA,0.0107
11,GCGTAGGA,-0.069
12,CTGAACAC,0.148
13,AGCCATCC,0.0193
14,AGTTGCTC,-0.0343
15,ACACGCGT,0.101
16,GCGTCAAA,0.099
17,CGGTTACC,0.0175
18,AACGGCCA,0.214
19,CACTGGTC,-0.187
